Reference: article PMC7819943, “Rice protein-binding microarrays: a tool to detect cis-acting elements near promoter regions in rice”
This is one part of the list.

target: T1, OsWOX13 (Oryza sativa, UniProt Q5QMM3 1-267); assay: protein-binding microarray (RPBM); PBS, 2% BSA, 51.3 ng/ul salmon testes DNA, 50 uM zinc acetate, 200 nM TF, 25 C, 1 h; high values mean tight binding; conditions: protein: recombinant; tags: N-terminal polyhistidine and DsRed monomer fusion (pET32a); label: CyDye5-dUTP incorporated in the synthesized complementary strand; 3' TTTTT single-stranded linker to array surface; dsDNA, one strand shown
T1 sequence: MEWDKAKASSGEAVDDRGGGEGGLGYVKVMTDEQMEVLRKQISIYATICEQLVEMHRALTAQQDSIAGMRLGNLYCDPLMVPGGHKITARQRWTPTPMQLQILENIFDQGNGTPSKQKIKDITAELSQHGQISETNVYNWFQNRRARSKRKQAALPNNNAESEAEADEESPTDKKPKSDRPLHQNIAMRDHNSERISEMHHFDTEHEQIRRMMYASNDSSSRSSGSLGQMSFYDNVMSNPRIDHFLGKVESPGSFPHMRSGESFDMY
How it was run: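 The binding signal for each feature is its fluorescence intensity in arbitrary units. An Axon 4000B scanner was used to read a custom Agilent array that had been made double-stranded with Cy5-dUTP primer extension, blocked with 2% BSA, incubated at 25 °C for 1 h with 200 nM protein in PBS, 2% BSA, salmon testes DNA and 50 µM zinc acetate, and washed. The protein was an N-terminal polyhistidine–DsRed transcription factor fusion from E. coli BL21-CodonPlus, purified on Ni–NTA.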

First: AAAATAACATCAATCTGAACGGGCTTTCAATTTAAATGGACGGAGTCACCTAGTGCAG
Second: TTAAACCTAATTCCAATCAGAAACCAGCAGTCACCACAAACGGAGTCACCTAGTGCAG
The binding signal of the first is lower: 4700 fluorescence intensity (a.u.) for the first, 19600 fluorescence intensity (a.u.) for the second.

Going from “TATGACATTTTAACTGATCTGAAATTTTGCAATGTAGCAGCGGAGTCACCTAGTGCAG” to “CAAAAGAACAATTATTGATCAACTAATGTACACGTCCCAGCGGAGTCACCTAGTGCAG”, the binding signal rises from 7030 fluorescence intensity (a.u.) to 13900 fluorescence intensity (a.u.).

First: GAGCTGTCATAAATCATAATCATGAACATACAAGCATAATCGGAGTCACCTAGTGCAG
Second: CTCTCTTTAATTAGCTAGATTGATGTATGTGGTTACTTACCGGAGTCACCTAGTGCAG
The binding signal of the first is lower: 4020 fluorescence intensity (a.u.) for the first, 38500 fluorescence intensity (a.u.) for the second.

First: TGTCATGGAAAGAGAAAATTGATTTAGAATGTAGACCATTCGGAGTCACCTAGTGCAG
Second: CGCCTTAATTACTTCGATTTCGAACAGAATGGGAATACAGCGGAGTCACCTAGTGCAG
The binding signal of the first is lower: 3750 fluorescence intensity (a.u.) for the first, 37300 fluorescence intensity (a.u.) for the second.

Compared with “GCTTTCCATTCTGATTTTGTCCTTTTCACCTACCAAAACGCGGAGTCACCTAGTGCAG”, “TCTCGATCCTTTTATTAATTAGTTTTCGAGTTTTCGTCGACGGAGTCACCTAGTGCAG” is lower in binding signal: 4010 fluorescence intensity (a.u.) for the first, 3850 fluorescence intensity (a.u.) for the second.

First: AATACCAACTGTTTGATTTGAATCGTGTGATGTACTTCACCGGAGTCACCTAGTGCAG
Second: TTTTATGCTAACTTAAATTGATTAGACTTTCTAATTACAGCGGAGTCACCTAGTGCAG
The binding signal of the first is lower: 3250 fluorescence intensity (a.u.) for the first, 40300 fluorescence intensity (a.u.) for the second.

Going from “GGTGATGGGGCAAATGATGTTGGCATGCTTCAGGAAGCTGCGGAGTCACCTAGTGCAG” to “TTTTGATTGATAAGTATAACCATGTATAAGCGAAACAATGCGGAGTCACCTAGTGCAG”, the binding signal rises from 6800 fluorescence intensity (a.u.) to 64500 fluorescence intensity (a.u.).

Compared with “AATAATCATACTAATTATATAAGTATATACTAAATATTATCGGAGTCACCTAGTGCAG”, “TTTCGATTACGATTATTGTTATTATCGCTAAACCAAATAACGGAGTCACCTAGTGCAG” is lower in binding signal: 7370 fluorescence intensity (a.u.) for the first, 4270 fluorescence intensity (a.u.) for the second.

Compared with “AATTAATTGGTACTAAATGCTTTCAGGCTTTGGTCGTAGACGGAGTCACCTAGTGCAG”, “CAAATCTAAATTGTCTGTTCAGGCTGTAGCTAAAATAAACCGGAGTCACCTAGTGCAG” is lower in binding signal: 52100 fluorescence intensity (a.u.) for the first, 4370 fluorescence intensity (a.u.) for the second.

Going from “TAATGATGAGGATGTCCTATAATTTAAATTAAAACCGCTTCGGAGTCACCTAGTGCAG” to “TTTGAGACATTGATTTATTAGGACGGAGAGTGCACAGGAGCGGAGTCACCTAGTGCAG”, the binding signal rises from 5530 fluorescence intensity (a.u.) to 10400 fluorescence intensity (a.u.).

Compared with “GTTGAAATTAAAGACGATGTGACTGAAAAGTTATGTGTGTCGGAGTCACCTAGTGCAG”, “ATACTCAATTAATCATACGCTAATGGCTCACCTCGTTTTGCGGAGTCACCTAGTGCAG” is higher in binding signal: 8780 fluorescence intensity (a.u.) for the first, 21600 fluorescence intensity (a.u.) for the second.

Compared with “TGTAAACAATTACTCATTAATTCGAGGGACTTGTACGCAACGGAGTCACCTAGTGCAG”, “GCGTTGGATTTGATTGGGCCTCACCGAAATTTCGGTCCGACGGAGTCACCTAGTGCAG” is higher in binding signal: 5170 fluorescence intensity (a.u.) for the first, 22500 fluorescence intensity (a.u.) for the second.

First: CTTAAATTTTGTAAAATTATAATGGTATGGTTCAAATTTTCGGAGTCACCTAGTGCAG
Second: TAAACTGTTATTCAGCACGTGATTTATACCACGGGTATAACGGAGTCACCTAGTGCAG
The binding signal of the first is lower: 8460 fluorescence intensity (a.u.) for the first, 10300 fluorescence intensity (a.u.) for the second.

Compared with “CCTTGTACCAAGAGAATAGATTGACCAAATTGTAAGCGAACGGAGTCACCTAGTGCAG”, “CAGCAAATTAAATAGTTAAATTTTGAGCATAAACCTATTCCGGAGTCACCTAGTGCAG” is higher in binding signal: 5240 fluorescence intensity (a.u.) for the first, 30400 fluorescence intensity (a.u.) for the second.

First: CATTACAACAGCTAATCAATTGTTTACATTTGCCTTGCTGCGGAGTCACCTAGTGCAG
Second: AACGACGATTAGATTGGAACGACAAACCGGTCTGCTGATACGGAGTCACCTAGTGCAG
The binding signal of the first is lower: 7210 fluorescence intensity (a.u.) for the first, 14900 fluorescence intensity (a.u.) for the second.

Compared with “ACAATCATGTAAGTTTAAATTTAACTTATACATATCGCAACGGAGTCACCTAGTGCAG”, “AAACAAATGATTTCCATGTTTTATGTGCATTGGTGCATACCGGAGTCACCTAGTGCAG” is lower in binding signal: 6240 fluorescence intensity (a.u.) for the first, 6200 fluorescence intensity (a.u.) for the second.

Compared with “AAAACCGTTGTGATTATTATTGTCATATTAGACCGCTTAACGGAGTCACCTAGTGCAG”, “TAACTGTAATTTTGAGTAACAAATTCAAACTGTGACTCCCCGGAGTCACCTAGTGCAG” is higher in binding signal: 3870 fluorescence intensity (a.u.) for the first, 9370 fluorescence intensity (a.u.) for the second.

First: CCGGCTAATGATCGATAAATGATACTACAATAAATCTAAGCGGAGTCACCTAGTGCAG
Second: GCTAAAACCCAATAGTTGTGCAGGAATCATCAGCTCATCGCGGAGTCACCTAGTGCAG
The binding signal of the first is higher: 7060 fluorescence intensity (a.u.) for the first, 3740 fluorescence intensity (a.u.) for the second.

Going from “TCAAATTTAAACTTGTACGTTTACGGAGTGATATATTACACGGAGTCACCTAGTGCAG” to “TATTTAATTAATCACACGTTAATGATCACTTCGTTTTGCCCGGAGTCACCTAGTGCAG”, the binding signal rises from 3150 fluorescence intensity (a.u.) to 44400 fluorescence intensity (a.u.).

Compared with “CTAACTCAGTTATAGCTGTCTAACAAAGCAAATTAGCTTTCGGAGTCACCTAGTGCAG”, “CAAAATTAACTTGCGCGCCACTCTGCCTCTCAACCCTTCACGGAGTCACCTAGTGCAG” is higher in binding signal: 3180 fluorescence intensity (a.u.) for the first, 8740 fluorescence intensity (a.u.) for the second.

Going from “CCATTTTGACTTCGCAATTATGTGCATTAATTAATCTCTTCGGAGTCACCTAGTGCAG” to “TGTAATGATTACATATGTGTGATGCTTTCACCATGCTAACCGGAGTCACCTAGTGCAG”, the binding signal falls from 16800 fluorescence intensity (a.u.) to 13000 fluorescence intensity (a.u.).
